Measurements from PubChem BioAssay AID1345082 (National Center for Advancing Translational Sciences (NCATS), 2018).
The whole screen tested about 94,000 compounds, of which about 4,000 (4.3%) were called active. This list was built around the results that the source calls inconclusive (neither active nor inactive); the mix of calls is not that of the screen. Calls come from the whole dose curve; as a rule, active = well fitted inhibition curve with a large enough effect; inconclusive = small, poorly fitted or top-dose-only effect; inactive = no such curve, though single readings can be large or run the other way. Potencies of inconclusive entries are doubtful fits and often do not repeat.
% is set by controls: 0 for no effect and ±100 for the full control effect; potency is the fitted concentration of half-maximal effect; tags give direction and shape of the fitted curve.

Test: Cytotoxic Profiling in NIH 3T3 Cell Line of Diverse Libraries Using Quantitative High-Throughput Screening; note: nearly all actives have a fitted effect of over 55% in size
Conditions: NIH 3T3 viability, CellTiter-Glo ATP luminescence, 48-72 h; activity change, negative = cytotoxicity: at 96.7 µM (top of the series) unless noted; series mostly up to 96.7 µM
Outline: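 Cytotoxicity was measured by CellTiter-Glo ATP luminescence after 48 or 72 h compound exposure at 37 °C. Mouse NIH 3T3 fibroblasts were seeded at 400 cells/well and dosed by 23 nL pin transfer.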
In the case of `CCOC(=O)C1CCN(C(=O)c2ccc3nnc(-c4cccc(C(F)(F)F)c4)n3c2)CC1`, the Potency is reported as inconclusive: 50.1 µM [inhibitor, partial curve, poor fit]. For `O=C(Cc1ccsc1)N1CCC2(CC1)CC(N1CCCCC1)CCO2` (stereo unspecified), the “outcome” value was “inactive”. With `COc1ccc(CNC[C@H]2Cn3c(-c4ccc(Cl)cc4)cnc3CO2)cc1` the Potency was active: 31.6 µM. With `CCc1ccccc1S(=O)(=O)N1CCCN(C)c2ccccc21` the Potency was inconclusive: 56.2 µM [inhibitor, partial curve, poor fit]. In the case of `COc1ccccc1-c1[nH]nc2ncc(C(=O)N3CCNC(=O)C3)nc12`, the Potency is reported as inconclusive: 100 µM [inhibitor, partial curve, poor fit]. For `Cc1cn2nc(C(=O)N3CCC(NC(=O)c4ccc(Cl)cc4)CC3)cc2c(=O)[nH]1`, the Potency was inconclusive: 70.8 µM [inhibitor, single point]. In the case of `C=CCn1cc2c3c(cccc31)[C@H](CC(C)C)N[C@H](C(=O)NCc1ccc(F)cc1)C2`, the Potency is reported as inconclusive: 112 µM [inhibitor, partial curve, poor fit]. In the case of `COCC1CN(C(=O)C2(c3ccc(OC)cc3)CC2)CC12CCOCC2` (stereo unspecified), the Potency is reported as inconclusive: 56.2 µM [inhibitor, partial curve, poor fit]. With `COc1cc(Cl)c(C)cc1NC(=O)c1cc2n(n1)CC(c1ccc(Cl)cc1)OC2` (stereo unspecified) the Potency was inconclusive: 70.8 µM [inhibitor, single point]. For `COc1cccc([S+](=O)([O-])NC2CCN(c3ccc4nnc(C)n4n3)CC2)c1`, the Potency was inconclusive: 44.7 µM [inhibitor, partial curve, poor fit]. In the case of `COc1ccc(NC(=O)c2c(C)nc3n2CCC(Nc2ccc(F)cc2)C3)cn1` (stereo unspecified), the Potency is reported as inconclusive: 56.2 µM [inhibitor, partial curve, poor fit]. For `O=C(CC1=C2CCCCC2NC1=O)NCCc1c[nH]c2ccccc12` (stereo unspecified), the “activity change, negative = cytotoxicity” value was inactive: -10.8%. In the case of `CSc1ccc(NC(=O)Nc2cccc(-c3ccc(N4CCOCC4)nn3)c2)cc1`, the Potency is reported as inconclusive: 44.7 µM [inhibitor, partial curve, poor fit]. In the case of `C=CCOc1c(OC)ccc2c1CN(CC)C(=O)CCN2C[C@@H](O)COCc1ccccc1`, the Potency is reported as inconclusive: 50.1 µM [inhibitor, partial curve, poor fit]. In the case of `CN1CCN(c2ccc(-c3cc4c(ccn4C)c(C(=O)NCCN4CCNC4=O)n3)cc2)CC1`, the Potency is reported as inconclusive: 44.7 µM [inhibitor, partial curve, poor fit]. In the case of `CNC(=O)c1cc(-c2ccc(OC)nc2)cc2c1OCCN2Cc1cccnc1`, the Potency is reported as inconclusive: 15.8 µM [inhibitor, full curve, poor fit].
